From PubChem BioAssay AID504333 (National Center for Advancing Translational Sciences (NCATS), 2011)
“And” between values parts separate entries of the source, which are not always exact repeats. Equal values may be shown once. The campaign covered roughly 360,000 compounds. About 16,000 (4.4%) were called active. The inconclusive results got no clear call from the source; some entries with a clear call stand among them for comparison. Calls come from the whole dose curve; as a rule, active = well fitted inhibition curve with a large enough effect; inconclusive = small, poorly fitted or top-dose-only effect; inactive = no such curve, though single readings can be large or run the other way. A potency beside an inconclusive call is a rough fit, not a confirmed value.

Target: Bromodomain adjacent to zinc finger domain protein 2B (Homo sapiens) (UniProt Q9UIF8)
Experiment: qHTS Assay for Inhibitors of BAZ2B; note: nearly all actives have a fitted effect of over 60% in size
Conditions: AlphaScreen BAZ2B-H3K14Ac peptide displacement; activity change, negative = inhibition: at 114 µM (top of the series)
Outline: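 BAZ2B 50 nM plus b-H3(5-23)K14Ac 50 nM, PBS pH 7.4/0.01% Tween-20, 30 min RT; compound added (max 110 uM), 30 min RT; streptavidin donor/Ni-chelate acceptor beads 10 ug/mL final, 20 min dark; AlphaScreen read.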
% is set by controls: 0 for no effect and ±100 for the full control effect; potency is the fitted concentration of half-maximal effect; tags give direction and shape of the fitted curve.

UniProt Q9UIF8, sequence (Q9UIF8 whole entry, looked up, the tested form may be a part): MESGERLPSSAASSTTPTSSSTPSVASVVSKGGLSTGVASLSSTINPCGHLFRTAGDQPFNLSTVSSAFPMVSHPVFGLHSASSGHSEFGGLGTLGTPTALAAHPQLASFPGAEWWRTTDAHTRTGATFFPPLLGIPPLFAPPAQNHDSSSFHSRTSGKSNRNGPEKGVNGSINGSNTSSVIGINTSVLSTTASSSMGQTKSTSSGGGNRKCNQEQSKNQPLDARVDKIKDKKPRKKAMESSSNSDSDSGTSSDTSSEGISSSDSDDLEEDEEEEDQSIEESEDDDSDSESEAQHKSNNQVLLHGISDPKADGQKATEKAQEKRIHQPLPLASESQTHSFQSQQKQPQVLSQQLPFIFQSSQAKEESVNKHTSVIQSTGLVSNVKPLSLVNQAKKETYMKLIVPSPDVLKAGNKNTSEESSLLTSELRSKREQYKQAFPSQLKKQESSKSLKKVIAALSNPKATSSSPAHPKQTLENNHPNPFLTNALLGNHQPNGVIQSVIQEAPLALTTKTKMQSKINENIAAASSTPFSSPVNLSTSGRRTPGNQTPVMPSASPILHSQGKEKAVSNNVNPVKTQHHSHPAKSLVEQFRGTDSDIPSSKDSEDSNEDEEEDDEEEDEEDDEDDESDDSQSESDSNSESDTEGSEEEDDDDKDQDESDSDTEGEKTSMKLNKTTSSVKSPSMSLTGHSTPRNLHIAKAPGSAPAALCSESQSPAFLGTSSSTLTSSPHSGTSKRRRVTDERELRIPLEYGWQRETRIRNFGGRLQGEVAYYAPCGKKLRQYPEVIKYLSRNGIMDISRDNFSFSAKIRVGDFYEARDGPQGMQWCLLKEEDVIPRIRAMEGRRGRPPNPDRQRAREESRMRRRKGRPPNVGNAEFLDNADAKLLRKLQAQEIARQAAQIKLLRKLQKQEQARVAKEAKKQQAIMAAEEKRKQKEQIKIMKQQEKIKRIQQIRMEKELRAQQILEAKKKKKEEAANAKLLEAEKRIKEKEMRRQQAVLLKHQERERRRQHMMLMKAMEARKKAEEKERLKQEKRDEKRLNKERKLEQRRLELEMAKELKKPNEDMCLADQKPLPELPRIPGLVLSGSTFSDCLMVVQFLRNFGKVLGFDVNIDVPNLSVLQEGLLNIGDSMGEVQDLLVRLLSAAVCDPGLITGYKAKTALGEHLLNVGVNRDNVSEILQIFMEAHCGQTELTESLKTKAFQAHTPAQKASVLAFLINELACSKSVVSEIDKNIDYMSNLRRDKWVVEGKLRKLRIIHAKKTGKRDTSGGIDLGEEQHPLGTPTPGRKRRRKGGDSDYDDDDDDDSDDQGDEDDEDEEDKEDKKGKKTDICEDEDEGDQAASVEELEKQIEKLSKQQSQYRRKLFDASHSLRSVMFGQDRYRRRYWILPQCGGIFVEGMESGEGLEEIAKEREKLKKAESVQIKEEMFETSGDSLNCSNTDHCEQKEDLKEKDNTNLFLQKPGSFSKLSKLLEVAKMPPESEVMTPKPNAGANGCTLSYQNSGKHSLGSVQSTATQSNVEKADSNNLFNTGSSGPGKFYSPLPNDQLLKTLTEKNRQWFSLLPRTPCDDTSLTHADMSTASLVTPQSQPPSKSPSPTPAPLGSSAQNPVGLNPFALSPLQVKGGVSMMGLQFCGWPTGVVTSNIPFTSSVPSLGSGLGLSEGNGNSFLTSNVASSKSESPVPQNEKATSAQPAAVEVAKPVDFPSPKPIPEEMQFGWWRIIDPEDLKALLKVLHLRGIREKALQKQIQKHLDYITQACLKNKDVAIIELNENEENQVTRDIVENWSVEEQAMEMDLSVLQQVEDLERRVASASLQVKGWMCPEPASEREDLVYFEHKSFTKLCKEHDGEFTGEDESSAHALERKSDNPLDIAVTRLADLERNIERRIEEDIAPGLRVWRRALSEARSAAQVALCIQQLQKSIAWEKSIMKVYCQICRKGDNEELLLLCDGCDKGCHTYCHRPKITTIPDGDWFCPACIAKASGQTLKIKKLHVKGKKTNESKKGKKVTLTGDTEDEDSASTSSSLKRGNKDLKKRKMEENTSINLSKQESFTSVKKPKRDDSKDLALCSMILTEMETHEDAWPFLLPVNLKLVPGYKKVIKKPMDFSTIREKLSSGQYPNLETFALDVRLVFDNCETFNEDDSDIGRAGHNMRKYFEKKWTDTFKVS

Question: With COc1ccc(/C=C/C(=O)N/C(=C\c2ccco2)C(=O)NCCc2nc3ccccc3[nH]2)cc1 as the molecule, how does the Potency read?
Answer: inconclusive: 79.4 µM [inhibitor, single point]

Question: For O=C(NC1CCCCCC1)c1cc(-c2ccccn2)nc2ccccc12, which Potency is on record?
Answer: inactive

Question: With COc1cc(C)c(Cl)cc1S(=O)(=O)n1ccnc1 as the molecule, how does the Potency read?
Answer: inconclusive: 79.4 µM [inhibitor, single point]

Question: How did the Potency turn out when COc1cccc(C(=O)N2CCN(Cc3ccccn3)CC2)c1 was run?
Answer: active: 20 µM

Question: For COc1ccccc1N(C)S(=O)(=O)c1ccc(C(=O)Nc2ccc(N3CCOCC3)cc2)cc1, which Potency is on record?
Answer: inconclusive: 50.1 µM [inhibitor, partial curve]

Question: How did the Potency turn out when COc1ccc(-c2nc3n(c2C)Cc2ccccc2-3)cc1 was run?
Answer: inconclusive: 39.8 µM [inhibitor, partial curve]

Question: How did the Potency turn out when N=c1c2c(ncn1Cc1ccco1)Oc1c(ccc3ccccc13)C2c1ccccc1 (stereo not drawn) was run?
Answer: active: 50.1 µM

Question: Which Potency does the source give for O=C(Cc1ccccc1F)Nc1cccc2cccnc12 here?
Answer: inactive

Question: For CSc1ccc(NC(=O)NCCCN2CCC(Cc3ccccc3)CC2)cc1, which Potency is on record?
Answer: active: 39.8 µM

Question: With O=C(CSc1nnnn1C1CCCCC1)Nc1nc2c(s1)CCCC2 as the molecule, how does the Potency read?
Answer: inconclusive: 50.1 µM [inhibitor, partial curve]

Question: Which Potency does the source give for CCOc1ccc(S(=O)(=O)N2CCC(C(=O)NC3CCCC3)CC2)cc1 here?
Answer: inactive

Question: COc1cccc(C2CC3(CC(C)(C)NC(=S)N3)Oc3cc(O)ccc32)c1 (stereo not drawn) was tested. Which Potency did it give?
Answer: inconclusive: 44.7 µM [inhibitor, partial curve]

Question: Which Potency does the source give for COc1ccc2cc(CNc3ccc(C)cc3)c(=O)n(CC(=O)Nc3cccc(C(F)(F)F)c3)c2c1 here?
Answer: inactive

Question: For O=C(O)c1cc2n(n1)CCN(Cc1ccccc1Cl)C2=O, which Potency is on record?
Answer: inconclusive: 89.1 µM [inhibitor, single point]

Question: With CC(=O)c1c(N2CCN(Cc3ccccc3)CC2)[nH]c(-c2ccccc2)nc1=S as the molecule, how does the Potency read?
Answer: inconclusive: 35.5 µM [inhibitor, full curve, poor fit]

Question: For CCOc1ccc(OCc2ccc(C(=O)N/N=C(\C)c3ccccn3)cc2)cc1, which Potency is on record?
Answer: inconclusive: 11.2 µM [inhibitor, full curve]

Question: Which Potency does the source give for Cc1cccc(NS(=O)(=O)c2ccc3c(c2)OCC(C(=O)N2CCCC2)O3)c1C (stereo not drawn) here?
Answer: inactive

Question: COc1ccc(Cn2nnnc2CN2CCc3ccccc32)cc1 was tested. Which Potency did it give?
Answer: inconclusive: 89.1 µM [inhibitor, single point]

Question: For CCc1nn(CCCC(=O)NCc2cc(Br)ccc2OC)c(=O)c2cc3occc3n12, which Potency is on record?
Answer: inconclusive: 50.1 µM [inhibitor, partial curve] and inconclusive: 25.1 µM [inhibitor, single point]

Question: COc1nccnc1NS(=O)(=O)c1ccc(NC(=O)c2cccc(C)c2)cc1 was tested. Which Potency did it give?
Answer: active: 79.4 µM

Question: How did the Potency turn out when O=C(Cc1c(F)cccc1Cl)NNC(=O)c1ccncc1 was run?
Answer: inconclusive: 31.6 µM [inhibitor, single point]

Question: How did the activity change, negative = inhibition turn out when CCOC(=O)CCn1c(CC(=O)OCC)nc2ccccc21 was run?
Answer: inconclusive: -41.6% [inhibitor]

Question: How did the Potency turn out when Cc1ccc(CNC(=O)c2cc(=O)c3cc(C)cc(C)c3o2)cc1 was run?
Answer: inactive

Question: With Cc1cccc(NC(=O)COc2nsnc2N2CCOCC2)c1 as the molecule, how does the Potency read?
Answer: inconclusive: 44.7 µM [inhibitor, partial curve]

Question: For CC(C)OCCCn1c(=S)[nH]c2ncccc2c1=O, which Potency is on record?
Answer: inactive

Question: For O=C(COc1ccc2ccc(=O)oc2c1)Nc1ccc(N2CCCCC2)cc1, which Potency is on record?
Answer: inconclusive: 44.7 µM [inhibitor, partial curve]

Question: For COc1ccc(CC(=O)Nc2nc3ccccc3s2)cc1S(=O)(=O)N1CCOCC1, which Potency is on record?
Answer: inactive

Question: How did the Potency turn out when Cc1cccc(C(=O)NC(=S)Nc2ccc(S(=O)(=O)N3CCN(C)CC3)cc2)c1 was run?
Answer: inconclusive: 79.4 µM [inhibitor, single point]

Question: With O=C(c1ccccc1NS(=O)(=O)c1ccc(Cl)cc1)N1CCc2ccccc21 as the molecule, how does the Potency read?
Answer: inactive

Question: For CCOC(=O)c1c(NC(NC(C)=O)C(Cl)(Cl)Cl)sc2c1CCCC2 (stereo not drawn), which Potency is on record?
Answer: inconclusive: 89.1 µM [inhibitor, single point]

Question: Which Potency does the source give for Cc1cc2cc(CNC(=O)c3ccc4c(c3)OCO4)ccc2n1C here?
Answer: inconclusive: 28.2 µM [inhibitor, full curve]

Question: With COc1ccc2[nH]c(CN3CCC(n4nccc4NC(=O)C4CC4)CC3)c(C)c2c1 as the molecule, how does the Potency read?
Answer: inactive

Question: With Cc1ccc(C(=S)N2CCN(Cc3ccccc3)CC2)cc1 as the molecule, how does the Potency read?
Answer: inconclusive: 50.1 µM [inhibitor, partial curve]

Question: Which Potency does the source give for O=C1CCCC/C1=N\Nc1ccc(C2CCCCC2)cc1 here?
Answer: inconclusive: 70.8 µM [inhibitor, single point]

Question: Which Potency does the source give for O=C(O)CNC(=O)c1ccc(NS(=O)(=O)c2ccc3ccccc3c2)cc1 here?
Answer: inconclusive: 89.1 µM [inhibitor, single point]

Question: For CCN(CC)S(=O)(=O)c1cc(NC(=O)c2cc([N+](=O)[O-])ccc2N2CCOCC2)ccc1C, which Potency is on record?
Answer: inactive

Question: With CC1=C(CC(=O)c2ccccc2)C(=O)c2ccccc2C1=O as the molecule, how does the Potency read?
Answer: active: 22.4 µM

Question: For NC(=O)c1ccc(NC(=O)CCc2nc3ccccc3s2)cc1, which Potency is on record?
Answer: inconclusive: 79.4 µM [inhibitor, partial curve]

Question: For CSCCC(NC(=O)c1cccc(C)c1)C(=O)OCC(=O)Nc1c(C)nn(-c2ccccc2)c1C (stereo not drawn), which Potency is on record?
Answer: inactive

Question: Which Potency does the source give for O=c1oc2ccccc2c2c1C1O[C@](c3ccsc3)(Cc3ccccc31)O2 here?
Answer: active: 8.91 µM

Question: With COc1cc(NC(=O)CCc2nnc3ccc(N4CCN(c5cccc(OC)c5)CC4)nn23)cc(OC)c1 as the molecule, how does the Potency read?
Answer: inactive

Question: For O=C(O)Cc1ccc(NC(=O)C2CC=CCC2C(=O)O)cc1 (stereo not drawn), which Potency is on record?
Answer: active: 56.2 µM

Question: CN1CCN(C(=O)NC2CCCCC2)CC1 was tested. Which Potency did it give?
Answer: active: 50.1 µM

Question: For Cc1nnc(SCC(=O)NC2CC2)n1CC1CCCO1 (stereo not drawn), which Potency is on record?
Answer: inactive

Question: For N#C/C(=C(/O)CN1CCOCC1)c1nc2ccccc2s1, which Potency is on record?
Answer: inconclusive: 89.1 µM [inhibitor, single point]

Question: Which Potency does the source give for COc1ccc(C2C(C#N)=C(C)NC3=C2C(=O)c2ccccc23)cc1 (stereo not drawn) here?
Answer: inconclusive: 79.4 µM [inhibitor, single point]

Question: With COc1ccccc1NC(=O)CN1CCN(CC(=O)Nc2ccc3c(c2)OCO3)CC1 as the molecule, how does the Potency read?
Answer: inactive

Question: With CC1=CC(=NOC(=O)c2cccc([N+](=O)[O-])c2)C=C(C)C1=O as the molecule, how does the Potency read?
Answer: inconclusive: 89.1 µM [inhibitor, single point]
